{
  "source": "paper PMC6919601",
  "about": "“Identification of Plasmodium dipeptidyl aminopeptidase allosteric inhibitors by high throughput screening” (PLoS ONE, 2019)",
  "note": "Out of some 110,000 compounds screened, about 230 (0.21%) showed an effect of 50% or more. The list shows a part of the results.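 Note: 30 min substrate incubation versus DMSO and 10 µM JCP410 controls.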",
  "data": [
    {"molecular_target": "DPAP1 (Plasmodium falciparum, UniProt Q8IIJ9)", "sequence (Q8IIJ9 whole entry, looked up)": "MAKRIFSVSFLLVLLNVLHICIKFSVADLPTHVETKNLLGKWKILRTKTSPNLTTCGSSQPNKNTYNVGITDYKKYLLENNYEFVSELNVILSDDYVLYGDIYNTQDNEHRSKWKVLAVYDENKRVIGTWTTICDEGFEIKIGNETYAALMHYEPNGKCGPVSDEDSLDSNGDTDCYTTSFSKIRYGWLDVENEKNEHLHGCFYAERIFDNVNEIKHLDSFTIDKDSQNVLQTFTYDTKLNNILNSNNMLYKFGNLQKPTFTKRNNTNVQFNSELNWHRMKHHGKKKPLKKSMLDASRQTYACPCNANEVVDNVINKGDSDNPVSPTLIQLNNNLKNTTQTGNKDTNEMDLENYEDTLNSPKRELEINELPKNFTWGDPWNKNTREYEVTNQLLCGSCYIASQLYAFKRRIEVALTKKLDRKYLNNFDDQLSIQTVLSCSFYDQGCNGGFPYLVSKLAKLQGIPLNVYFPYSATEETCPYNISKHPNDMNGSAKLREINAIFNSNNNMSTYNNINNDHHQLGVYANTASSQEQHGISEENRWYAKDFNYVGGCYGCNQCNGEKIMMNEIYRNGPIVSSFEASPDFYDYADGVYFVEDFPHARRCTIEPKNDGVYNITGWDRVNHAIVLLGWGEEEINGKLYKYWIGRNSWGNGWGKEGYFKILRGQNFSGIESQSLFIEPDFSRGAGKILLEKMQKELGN", "test": "primary screen, percent inhibition; read by cleavage of a fluorogenic dipeptide substrate; higher = more effect of the substance", "parameters": "species or system P. falciparum D10 trophozoite lysates; single well", "units": {"% Inhibition @ 10 uM": "%"}, "values": [
      {"smiles": "Cn1c(=O)c2c(-c3ccccc3)n3c4ccccc4nnc3c2n(C)c1=O", "% Inhibition @ 10 uM": -2.65},
      {"smiles": "CC(C)(O)C#CC1(C)CCCC(C)(C)O1", "note": "(stereo not drawn)", "% Inhibition @ 10 uM": 1.63},
      {"smiles": "COc1ccccc1-c1nc2s/c(=C\\c3ccc(-c4ccc(C(C)=O)cc4)o3)c(=O)n2n1", "% Inhibition @ 10 uM": 8.44},
      {"smiles": "CCC(C)NC(=O)c1ccccc1NC(=O)COc1ccccc1OC", "note": "(stereo not drawn)", "% Inhibition @ 10 uM": 2.06},
      {"smiles": "CSc1ccc(C2C3=C(O)CC(C)(C)CC3=NC3=C2C(=O)CC(C)(C)C3)cc1", "note": "(stereo not drawn)", "% Inhibition @ 10 uM": -2.54},
      {"smiles": "COc1cccc(/C=C/C2=NN(c3cccc(Cl)c3)C(c3cccc(OC)c3OC)C2)c1OC", "note": "(stereo not drawn)", "% Inhibition @ 10 uM": 2.38},
      {"smiles": "N#CC1=C(N)OC2=C(C(=O)CCC2)C12C(=O)Nc1cc(Cl)ccc12", "note": "(stereo not drawn)", "% Inhibition @ 10 uM": 0.317},
      {"smiles": "Cc1c(C(=O)N2CCOCC2)oc2c1-c1nn(CC(=O)NCc3ccccc3Cl)cc1CC2", "% Inhibition @ 10 uM": -3.46},
      {"smiles": "O=C1c2ccccc2C(=O)N1CNc1cccc(C(F)(F)F)c1", "% Inhibition @ 10 uM": 4.8},
      {"smiles": "CCCCOC(=O)Nc1ccc(S(=O)(=O)Nc2ncccn2)cc1", "% Inhibition @ 10 uM": 2.95},
      {"smiles": "CCOc1ccccc1-c1cc(C(=O)O)c2c(-c3ccccc3)[nH]nc2n1", "% Inhibition @ 10 uM": 1.09},
      {"smiles": "O=S(=O)(c1ccc(F)cc1)N1CCC(c2nnnn2-c2ccccc2)CC1", "% Inhibition @ 10 uM": -2.84},
      {"smiles": "COc1ccc2sc(C)[n+](CCC(=O)O)c2c1", "% Inhibition @ 10 uM": -3.5},
      {"smiles": "OCCN(CCO)Cc1c(Cl)cccc1Cl", "% Inhibition @ 10 uM": 6.32},
      {"smiles": "CCN1C(=O)C2NN=C(C(=O)OC)C2C1=O", "note": "(stereo not drawn)", "% Inhibition @ 10 uM": -9.37},
      {"smiles": "COc1ccc(S(=O)(=O)Cc2ccc(C(=O)N3CCN(C(=O)c4ccco4)CC3)o2)cc1", "% Inhibition @ 10 uM": -4.53},
      {"smiles": "CCCOc1ccc(Cl)cc1/C=C1/C(=O)ON=C1C", "% Inhibition @ 10 uM": -0.386},
      {"smiles": "CCC1CCCCN1CCCNC(=O)CNC(=O)Cn1ccc2ccccc2c1=O", "note": "(stereo not drawn)", "% Inhibition @ 10 uM": -7.33},
      {"smiles": "O=C(CN1C(=O)C2C3c4ccccc4C(c4ccccc43)C2C1=O)NC1CCCCC1", "note": "(stereo not drawn)", "% Inhibition @ 10 uM": -7.15},
      {"smiles": "CCOc1ccc(C(=O)Nc2nc3ccc(S(C)(=O)=O)cc3s2)cc1", "% Inhibition @ 10 uM": -2.53},
      {"smiles": "COCCNS(=O)(=O)c1ccc2oc(=O)c3ncn(C)c3c2c1", "% Inhibition @ 10 uM": -7.48},
      {"smiles": "CCOc1cc(/C=C2\\SC(=N)N(c3nonc3N)C2=O)ccc1O", "% Inhibition @ 10 uM": 4.81},
      {"smiles": "Cn1c(=O)c2ncn(CC(=O)N3CCN(Cc4ccccc4)CC3)c2n(C)c1=O", "% Inhibition @ 10 uM": -8.09},
      {"smiles": "CC(C)CCP(=O)(O)c1ccccc1", "% Inhibition @ 10 uM": -5.94},
      {"smiles": "C/C(=C\\c1ccccc1)CN1CCN(c2ccccc2F)CC1", "% Inhibition @ 10 uM": -3.57},
      {"smiles": "Cn1c(SCC(=O)NCCO)nc2ccccc2c1=O", "% Inhibition @ 10 uM": -6.74},
      {"smiles": "CCn1c(SCc2c(C)ccc3ccccc23)nc2c1c(=O)n(C)c(=O)n2C", "% Inhibition @ 10 uM": 3.25}
    ]}
  ]
}
